# Source: the RNAGym collection of RNA variant scans (doi:10.1093/nar/gkz1192)
# Read counts are not given, so values of variants with three or more changes are uncertain.
# B1: CPEB3 Ribozyme (parent)
# chain: UAACAGGGGGCCACAGCAGAAGCGUUCACGUCGCAGCCCCUGUCAGAUUCUGGUGAAUCUGCGAAUUCUGCUGUAUAUCUC
# Variants of: B1
# Test: self-cleavage, relative activity (ratio to wild type); higher = more cleavage; in vitro, sequencing
# Method in brief: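 Relative activity was defined as the cleaved/total read fraction for a variant divided by the same fraction for the unmutated ribozyme. CPEB3 self-cleaving ribozyme libraries were made by rounds of error-prone PCR, barcoded, and transcribed in vitro with T7 RNA polymerase for 5 hours at 37°C, and cleavage ran through transcription plus a 15 min DNase I step before EDTA. Illumina sequencing of template-switched reverse transcripts gave the reads, and DNA sequencing mapped the barcodes. Averages come from three batches, using variants with at least 5 reads.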
row,Variant,self-cleavage
1,U41C U49C A57G,0.45
2,U41C U49C G61A U66C,0.4
3,U41C U49C G61A U72A,0.14
4,U41C U51A A64G,0.9
5,U41C U51A A65U,0.57
6,U41C U51C U69A U72C,0.6
7,U41C U51C U74C,1.17
8,U41C U54A U67C A77G,0.42
9,U41C U54C A57G A65U U66C C79U U80A,0.11
10,U41C U54C A57G U66A U78G,0.21
11,U41C U54C U69A,0.53
12,U41C U58A U69A,0.18
13,U41C U60A A64G U76A,0.28
14,U41C U60A C71U,0.43
15,U41C U60C A64G,0.33
16,U41C U60C A64G U66C,0.25
17,U41C U60C C81A,0.64
18,U41C U60C G63A U69A,0.32
19,U41C U60C G73A,1.17
20,U41C U66A U69C,0.15
21,U41C U67A A77U,0.61
22,U41C U67G A75U,0.47
23,U41C U69C U72A,0.45
24,U41C U72A U80C,1.28

row,Variant,self-cleavage
1,U41G A45G U74C,0.61
2,U41G A47G A57U U69G,0.21
3,U41G A47G U49A,0.21
4,U41G A47G U69C C81A,0.43
5,U41G A47U A65G,0.08
6,U41G A57G U72C,0.21
7,U41G A64G U78C,0.14
8,U41G U51A A56U A57G U80C,0.21
9,U41G U54C U69A,0.1
10,U41G U60A A64G,0.16
11,U41G U67A U72C U78C,0.18
12,U41G U72A U78C,0.11
13,G42A A56U C71U,0.06
14,G42A A64G U67A U72G,0.1
15,G42A A64U U69G,0.15
16,G42A U48C A57G C81U,0.29
17,G42A U58A A65G,0.06
18,G42A U60A U72C,0.22
19,G42C A45G A47G,0.12
20,G42C A64C A65G,0.17
21,G42U A56G U74C,0.32
22,G42U A56U U60A U69C,0.09
23,G42U U49C C59U U78C,0.06
24,G42U U49C C62A U69C,0.09

row,Variant,self-cleavage
1,G42U U58C U60C,0.17
2,U43A A45G A47U,0.31
3,U43A A45G A57G,0.79
4,U43A A45G U48C A56G,0.23
5,U43A A45G U49C A57G U72A U78C,0.3
6,U43A A45U C50A A75G A77G,0.4
7,U43A A56G A57G U66C U67C U76A,0.21
8,U43A A56G A57U,0.46
9,U43A A56U A64G U76G,0.39
10,U43A A56U G70A,0.48
11,U43A A56U U69A,0.3
12,U43A A56U U78C,0.62
13,U43A A57G U78C,0.62
14,U43A C44U A64G U69C U72A,0.03
15,U43A C50U U60C U78C,0.3
16,U43A C68U U69C U72C,0.39
17,U43A G46U A64G,0.16
18,U43A U48A U74A,0.88
19,U43A U48C A56U U69C U76C,0.08
20,U43A U48C U54A,0.75
21,U43A U49A G52A U74C,1.25
22,U43A U49C A64C,0.15
23,U43A U49C A77U,0.59
24,U43A U49C U51C,0.35

row,Variant,self-cleavage
1,U43A U49G A56U A57G G61A,0.38
2,U43A U51A A64U U69A,0.54
3,U43A U51C U78C,1.12
4,U43A U54A A57G G63A U72C,1.22
5,U43A U54C C62U,0.18
6,U43A U54C U66C G70A U72A U80C,0.18
7,U43A U54C U69A G73A,0.39
8,U43A U60C A77G U80A,0.72
9,U43A U74A U76C,1.04
10,U43A U78A C81U,1.15
11,U43A U78C C79G,1.27
12,U43C A45G G63U U72C,0.46
13,U43C A45G U49G U76C,0.21
14,U43C A45G U66C U69A,0.09
15,U43C A45G U72C U74C,0.84
16,U43C A45G U76A A77C,0.28
17,U43C A45U A56U,0.26
18,U43C A45U C59A,0.16
19,U43C A47G A77U,0.64
20,U43C A47G U74C,0.8
21,U43C A47U A64G U76C,0.16
22,U43C A56G A57G U60A,0.12
23,U43C A56G A77G,0.27
24,U43C A56U U58A,0.11

row,Variant,self-cleavage
1,U43C A57G U78C,0.17
2,U43C A64G U80C,0.51
3,U43C A65G A75U C81G,0.17
4,U43C C50A A65U U69G U78C,0.08
5,U43C C50U U51C,0.66
6,U43C C62A G73A U76C,0.2
7,U43C G46U A64G,0.21
8,U43C G46U U67C U72C,0.04
9,U43C G52A A64G A77G U78A,0.81
10,U43C G55A A75G,0.2
11,U43C G55U U72A,0.33
12,U43C U48C A56G,0.14
13,U43C U48C A77G,0.23
14,U43C U48C U60A,0.15
15,U43C U49A U80C,0.48
16,U43C U49C U78C,0.27
17,U43C U51A A56U,0.29
18,U43C U51A A57G A65G A77G,0.28
19,U43C U51A U54G G55U,0.19
20,U43C U51C A65G,0.79
21,U43C U51C A75U,0.96
22,U43C U54A A56U U66C,0.08
23,U43C U54C A56G,0.17
24,U43C U54C A64G U66C U69C A77G,0.23

row,Variant,self-cleavage
1,U43C U54C A64U U67A,0.2
2,U43C U54C U66A U69C,0.09
3,U43C U54C U67C,0.27
4,U43C U54G U69C U72A,0.08
5,U43C U58C G63U,0.13
6,U43C U58C U67A,0.15
7,U43C U58C U72C,0.21
8,U43C U58C U74C,0.12
9,U43C U60C U69A U80A,0.15
10,U43C U67C A77G U78C,0.11
11,U43C U67C U78A,0.11
12,U43C U69A A75U,0.17
13,U43C U69A A77U U78A,0.42
14,U43C U69C U74A U78C,0.32
15,U43C U69C U78A,0.25
16,U43C U72C U80C,0.72
17,U43G A77G U78C,0.2
18,U43G C44G G55U,0.95
19,U43G U48C U49G,0.43
20,U43G U51C U67A U78A,0.03
21,U43G U58C A65G U76A,0.08
22,U43G U58C U72A,0.07
23,C44A U48C U78A,0.12
24,C44A U51C U54G A57G U72C,0.28

row,Variant,self-cleavage
1,C44A U60C U80C,0.39
2,C44G A45U A47G U78A,0.3
3,C44G A47G U69C U74C,0.07
4,C44G A64G A65G,0.18
5,C44G C50G U58C U60A U67C,0.05
6,C44G U49A U76C A77G,0.12
7,C44G U49G U76C,0.1
8,C44G U67A A75G,0.13
9,C44U A45G A57G,0.23
10,C44U A57U G70C U80C,0.07
11,C44U A64U U67C,0.33
12,C44U C50A U54A A64G,0.07
13,C44U C62U U76A,0.14
14,C44U U48C A56G,0.18
15,C44U U54C U80C,0.32
16,C44U U60C A64C U78C,0.12
17,C44U U60C A64G,0.11
18,A45C A56U A64U U72A,0.16
19,A45C A65C U72C,0.15
20,A45C G52A U58C U72G,0.07
21,A45C G52A U72G,0.41
22,A45C G63A A65U U67C U72C,0.17
23,A45C G63U U78C,0.21
